Test results taken from publication PMC8421223 (2021).
Values belong to the compound of their own block, whether it stands above or below them.

Legend:
[1] = system: RNA-A (RNA, mismatch bulge abasic) GCAGCUCGUCCUG/CAGGAUAGCUGC; assay: UV melting, 260 nm; details: 100 mM NaCl, 10 mM Na2HPO4; pH 7, 1 mM EDTA, 0.1% DMSO; 2 μM RNA, 10 μM ligand
[2] = system: RNA-A (RNA, mismatch bulge abasic) GCAGCUCGUCCUG/CAGGAUAGCUGC; assay: ITC, RNA titrated into ligand; details: 100 mM NaCl, 10 mM Na2HPO4; pH 7, 1 mM EDTA, 0.1% DMSO, 25 °C
[3] = system: RNA-J (RNA, mismatch bulge abasic) GCAGCAUGUCCUG/CAGGAUUGCUGC; assay: fluorescence titration of berberine (ex 365 nm, em 550 nm); details: 100 mM KCl, 0.5 mM MgCl2; 50 mM MES-LiOH pH 7, 0.1% DMSO, 0.01% Tween-20, 25 °C; n.d., RNA up to 4 μM
[4] = system: A10 (RNA, other) GGUGAUAGCUCUUUCUCGAUUCCGUGGGUGGUGGUGCAUGGCCGUUCUCUUCUUGUGAUGUGACAGGAUGAUUCAUACCAGUCACUUUUAAAGCACUGUGUAAUGAGCAGAGUCCUUAGAAACAUCUUAGCAUC; assay: fluorescence of berberine with crude in vitro transcript; details: 100 mM KCl, 0.5 mM MgCl2; 50 mM MES-LiOH pH 7, 1 μM BRB, 0.1% DMSO, 0.01% Tween-20, 25 °C; crude transcription mix
[5] = system: A1 (RNA, other) GGUCUCACAGUUCACCAGCCUGGAGAUGAAAGAUGAUUUCCUCCAUGGACUGCAGAUGCUGAAAUCUCUCCGCCCCCCGUUCCCCCCUCCUCCUCGGCGCGCGGCGGCGGAGAGCCGGCU; assay: as above; details: 100 mM KCl, 0.5 mM MgCl2; 50 mM MES-LiOH pH 7, 1 μM BRB, 0.1% DMSO, 0.01% Tween-20, 25 °C; crude transcription mix
[6] = system: RNA-G (RNA, mismatch bulge abasic) GCAGCUCUUCCUG/CAGGAAAGCUGC; assay: fluorescence titration of berberine (ex 365 nm, em 550 nm); details: 100 mM KCl, 0.5 mM MgCl2; 50 mM MES-LiOH pH 7, 0.1% DMSO, 0.01% Tween-20, 25 °C, 50 nM BRB
[7] = system: A1-A (RNA, other) GGUCUCACAGUUCACCAGCCUGGAGAUGAAAGAUGAUUUCCUCCAUGGACUGCAGA; assay: fluorescence of berberine with crude in vitro transcript; details: 100 mM KCl, 0.5 mM MgCl2; 50 mM MES-LiOH pH 7, 1 μM BRB, 0.1% DMSO, 0.01% Tween-20, 25 °C; crude transcription mix
[8] = system: A1-E (RNA, hairpin) GGUCUCACAGUUCACCAGCCUAUGGACUGCAGA; assay: as above; details: 100 mM KCl, 0.5 mM MgCl2; 50 mM MES-LiOH pH 7, 1 μM BRB, 0.1% DMSO, 0.01% Tween-20, 25 °C; crude transcription mix
[9] = system: A1-B (RNA, other) GGCUGAAAUCUCUCCGCCCCCCGUUCCCCCCUCCUCCUCGGCGCGCGGCGGCGGAGAGCCGGC; assay: as above; details: 100 mM KCl, 0.5 mM MgCl2; 50 mM MES-LiOH pH 7, 1 μM BRB, 0.1% DMSO, 0.01% Tween-20, 25 °C; crude transcription mix
[10] = system: C7-C (RNA, rRNA) GGGAAACGGGUUCCCUCCGAAGUUUCCC; assay: as above; details: 100 mM KCl, 0.5 mM MgCl2; 50 mM MES-LiOH pH 7, 1 μM BRB, 0.1% DMSO, 0.01% Tween-20, 25 °C; crude transcription mix
[11] = system: RNA-H (RNA, mismatch bulge abasic, inosine at 8 of strand 1) GCAGCUCGUCCUG/CAGGAUAGCUGC; assay: fluorescence titration of berberine (ex 365 nm, em 550 nm); details: 100 mM KCl, 0.5 mM MgCl2; 50 mM MES-LiOH pH 7, 0.1% DMSO, 0.01% Tween-20, 25 °C, 50 nM BRB
[12] = system: A1-C (RNA, other) GGUUCACCAGCCUGGAGAUGAAAGAUGAUUUCCUCCAUGGAC; assay: fluorescence of berberine with crude in vitro transcript; details: 100 mM KCl, 0.5 mM MgCl2; 50 mM MES-LiOH pH 7, 1 μM BRB, 0.1% DMSO, 0.01% Tween-20, 25 °C; crude transcription mix
[13] = system: A1-D (RNA, hairpin) GGUGGAGAUGAAAGAUGAUUUCCUCCA; assay: as above; details: 100 mM KCl, 0.5 mM MgCl2; 50 mM MES-LiOH pH 7, 1 μM BRB, 0.1% DMSO, 0.01% Tween-20, 25 °C; crude transcription mix
[14] = system: RNA-B (RNA, mismatch bulge abasic) GCAGCUCAUCCUG/CAGGACAGCUGC; assay: fluorescence titration of berberine (ex 365 nm, em 550 nm); details: 100 mM KCl, 0.5 mM MgCl2; 50 mM MES-LiOH pH 7, 0.1% DMSO, 0.01% Tween-20, 25 °C, 50 nM BRB
[15] = system: C7-B (RNA, rRNA) GGUCCUGGGAAACGGGUUCCCUCCGAAGUUUCCCUCAGGAU; assay: fluorescence of berberine with crude in vitro transcript; details: 100 mM KCl, 0.5 mM MgCl2; 50 mM MES-LiOH pH 7, 1 μM BRB, 0.1% DMSO, 0.01% Tween-20, 25 °C; crude transcription mix
[16] = system: RNA-F (RNA, mismatch bulge abasic) GCAGCUCGUCCUG/CAGGACAGCUGC; assay: fluorescence titration of berberine (ex 365 nm, em 550 nm); details: 100 mM KCl, 0.5 mM MgCl2; 50 mM MES-LiOH pH 7, 0.1% DMSO, 0.01% Tween-20, 25 °C; n.d., RNA up to 4 μM
[17] = system: RNA-K (RNA, mismatch bulge abasic) GCAGCUCGCUCUG/CAGAGUAGCUGC; assay: as above; details: 100 mM KCl, 0.5 mM MgCl2; 50 mM MES-LiOH pH 7, 0.1% DMSO, 0.01% Tween-20, 25 °C, 50 nM BRB
[18] = system: RNA-I (RNA, mismatch bulge abasic) GCAGCACGUCCUG/CAGGAUUGCUGC; assay: as above; details: 100 mM KCl, 0.5 mM MgCl2; 50 mM MES-LiOH pH 7, 0.1% DMSO, 0.01% Tween-20, 25 °C, 50 nM BRB
[19] = system: C10 (RNA, other) GGUCUCUAUUUUACCCUCCUACAAGCCUCAGAGUACUUCGAGUCUCCCUUCACCAUUUCCGACGGCAUCUACGGCUCAACAUUUUUUGUAGCCACAG; assay: fluorescence of berberine with crude in vitro transcript; details: 100 mM KCl, 0.5 mM MgCl2; 50 mM MES-LiOH pH 7, 1 μM BRB, 0.1% DMSO, 0.01% Tween-20, 25 °C; crude transcription mix
[20] = system: RNA-C (RNA, duplex) GCAGCUGUCCUG/CAGGAUAGCUGC; assay: fluorescence titration of berberine (ex 365 nm, em 550 nm); details: 100 mM KCl, 0.5 mM MgCl2; 50 mM MES-LiOH pH 7, 0.1% DMSO, 0.01% Tween-20, 25 °C; n.d., RNA up to 4 μM
[21] = system: RNA-E (RNA, mismatch bulge abasic) GCAGCUCAUCCUG/CAGGAUAGCUGC; assay: as above; details: 100 mM KCl, 0.5 mM MgCl2; 50 mM MES-LiOH pH 7, 0.1% DMSO, 0.01% Tween-20, 25 °C, 50 nM BRB
[22] = system: RNA-L (RNA, mismatch bulge abasic) GCACGUCGUCCUG/CAGGAUACGUGC; assay: as above; details: 100 mM KCl, 0.5 mM MgCl2; 50 mM MES-LiOH pH 7, 0.1% DMSO, 0.01% Tween-20, 25 °C, 50 nM BRB
[23] = system: RNA-A (RNA, mismatch bulge abasic) GCAGCUCGUCCUG/CAGGAUAGCUGC; assay: as above; details: 100 mM KCl, 0.5 mM MgCl2; 50 mM MES-LiOH pH 7, 0.1% DMSO, 0.01% Tween-20, 25 °C, 50 nM BRB
[24] = system: RNA-A (RNA, mismatch bulge abasic) GCAGCUCGUCCUG/CAGGAUAGCUGC; assay: NMR structure (NOESY, TOCSY); details: 100 mM NaCl, 10 mM Na2HPO4; pH 7, 1 mM EDTA, 10% 2H2O, 25 °C, 300 μM RNA
[25] = system: RNA-D (RNA, mismatch bulge abasic) GCAGCUCGUCCUG/CAGGAUCAGCUGC; assay: fluorescence titration of berberine (ex 365 nm, em 550 nm); details: 100 mM KCl, 0.5 mM MgCl2; 50 mM MES-LiOH pH 7, 0.1% DMSO, 0.01% Tween-20, 25 °C; n.d., RNA up to 4 μM

ΔΔG°25 (melting) [1]: -1.3 ± 0.10 kcal/mol
KA(ITC) [2]: 2.32 ± 0.23 × 10^6 M^-1
SMILES: COc1cc2c(cc1OC)-c1cc3ccc(OC)c(OC)c3c[n+]1CC2

ΔΔG°25 (melting) [1]: -1.0 ± 0.22 kcal/mol
KA(ITC) [2]: 1.85 ± 0.25 × 10^6 M^-1
SMILES: COc1cc2c(cc1OC)-c1cc3ccc4c(c3c[n+]1CC2)OCO4

binding [3]: no
ΔΔG°25 (melting) [1]: -2.0 ± 0.13 kcal/mol
binding [4]: no
binding [5]: yes
Kobs [6]: 0.29 ± 0.01 × 10^6 M^-1
binding [7]: yes
KA(ITC) [2]: 6.47 ± 0.37 × 10^6 M^-1
binding [8]: yes
binding [9]: no
binding [10]: no
Kobs [11]: 4.27 ± 0.88 × 10^6 M^-1
binding [12]: no
binding [13]: no
Kobs [14]: 0.98 ± 0.25 × 10^6 M^-1
binding [15]: no
binding [16]: no
Kobs [17]: 2.37 ± 0.43 × 10^6 M^-1
Kobs [18]: 0.43 ± 0.06 × 10^6 M^-1
binding [19]: no
binding [20]: no
Kobs [21]: 0.36 ± 0.04 × 10^6 M^-1
Kobs [22]: 1.88 ± 0.18 × 10^6 M^-1
Kobs [23]: 2.79 ± 0.64 × 10^6 M^-1
binding [25]: no
SMILES: COc1ccc2cc3[n+](cc2c1OC)CCc1cc2c(cc1-3)OCO2
binding [24]: yes

ΔΔG°25 (melting) [1]: -1.8 ± 0.15 kcal/mol
KA(ITC) [2]: 3.57 ± 0.31 × 10^6 M^-1
SMILES: c1c2c(cc3c1OCO3)-c1cc3ccc4c(c3c[n+]1CC2)OCO4
